Self-cleavage data for 84 variants are collected here from the RNAGym collection of RNA variant scans (doi:10.1093/nar/gkz1192).

B1: CPEB3 Ribozyme (parent)
chain: UAACAGGGGGCCACAGCAGAAGCGUUCACGUCGCAGCCCCUGUCAGAUUCUGGUGAAUCUGCGAAUUCUGCUGUAUAUCUC

Read counts are not given, so values of variants with three or more changes are uncertain.

The variants in this data set derive from B1. Description: self-cleavage, relative activity (ratio to wild type); higher = more cleavage; in vitro, sequencing. The procedure, abridged: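 Relative activity was defined as the cleaved/total read fraction for a variant divided by the same fraction for the unmutated ribozyme. CPEB3 self-cleaving ribozyme libraries were made by rounds of error-prone PCR, barcoded, and transcribed in vitro with T7 RNA polymerase for 5 hours at 37°C, and cleavage ran through transcription plus a 15 min DNase I step before EDTA. Illumina sequencing of template-switched reverse transcripts gave the reads, and DNA sequencing mapped the barcodes. Averages come from three batches, using variants with at least 5 reads.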
On to A2G A3G G46A U48C U51C U60C, for which the self-cleavage came out at 0.25.

As for U1C A18U G19U U41C U43G, the self-cleavage came to 0.05.

As to U1C C11A U25A A47U U66C U78A, the self-cleavage worked out at 0.11.

U1C A13G A21U U58C U60A U80A: the self-cleavage was found to be 0.16.

Regarding A2G A5G A18U A20G U51A U72C, the self-cleavage was 0.17.

On to U1C C11G U31C U69A U74C C81A, for which the self-cleavage is 0.15.

In the case of U1C U26G G36A, the self-cleavage was 0.06.

U1C A35U U43G U72C: the self-cleavage came to 0.06.

Take A2G A13G A18U A28U G33A U58A: the self-cleavage was 0.03.

In the case of U1C A13U U26A U48C, the self-cleavage was found to be 0.53.

U1C G16U U60C U69A: the self-cleavage was found to be 0.07.

Consider U1C A35U U49A, for which the self-cleavage turned out to be 0.17.

For the variant U1C A3G A20G U26C A35U C40A, the self-cleavage is 0.51.

As for U1C A13G A45G A57G C79U, the self-cleavage is 0.33.

Take U1C A13U U48C U69A: the self-cleavage stood at 0.36.

As to U1C U25C U43G U58G U72C U80A, the self-cleavage came to 0.09.

Regarding U1G A18U A64U, the self-cleavage was found to be 0.35.

U1C A45C A75U: the self-cleavage worked out at 0.31.

Consider U1C A35G U41C U48A, for which the self-cleavage is 0.58.

Regarding A2G A13U C32A A47G, the self-cleavage stood at 0.11.

Take U1C C40U G73A: the self-cleavage worked out at 1.23.

In the case of A2C C11G G19A U26A A57U U72C U74C, the self-cleavage is 0.04.

Regarding U1G U54C U78C, the self-cleavage is 0.66.

U1C A13G G55A: the self-cleavage amounted to 0.8.

For U1C U41C A57G U74A, the self-cleavage was determined as 1.08.

For the variant A2G A13C U54C A56U U80C, the self-cleavage was 0.17.

In the case of A2G A13G A47G A56G U78C, the self-cleavage was 0.1.

Turning to U1C C23U U60C U72C, the self-cleavage worked out at 0.23.

In the case of U1C A15U A57G U58A, the self-cleavage turned out to be 0.05.

As for U1C A5U U43C U48A U60C, the self-cleavage was 0.07.

In the case of U1C G8A C11A U31C U54C A77U, the self-cleavage stood at 0.04.

Take U1C A13C A28G U31A A56U U69C: the self-cleavage amounted to 0.1.

On to U1C A5U U41C U69A A77C, for which the self-cleavage was 0.6.

As for U1C A28U U43C, the self-cleavage is 0.26.

With U1C A5G A45G U72A, the self-cleavage was 0.3.

As to A2C A28G A45G, the self-cleavage was found to be 0.5.

As for U1C A5U A28U G52C U58A G63C U72C, the self-cleavage was 0.46.

With U1G A45G U48A U58C U66C, the self-cleavage is 0.09.

Consider U1C U67C U69C U76C, for which the self-cleavage turned out to be 0.23.

In the case of U1C C44A U69C, the self-cleavage worked out at 0.34.

As for U1C G10C U25C, the self-cleavage worked out at 0.3.

Turning to A2G A13G A18G U41C U49A U78A U80A, the self-cleavage is 0.09.

Consider A2C C11A U41A U60A U78A, for which the self-cleavage worked out at 0.3.

As to A2G A5U G16U A57G U74A, the self-cleavage is 0.09.

Take U1C A20G C23G U54A C62G A65G: the self-cleavage came to 0.09.

Take U1C G8A A45G: the self-cleavage stood at 0.19.

As to U1C A15C A47U A56G U60C, the self-cleavage stood at 0.24.

In the case of U1C G8A A18G U51C G63U, the self-cleavage came out at 0.06.

For U1C G30A A56G U60A U80A, the self-cleavage is 0.04.

On to U1C A28G U58A, for which the self-cleavage was determined as 0.28.

Turning to A2G A5U C14G A18U C40U A47U A65G, the self-cleavage was determined as 0.22.

Consider A2G A15G U25A, for which the self-cleavage was determined as 0.72.

For U1C U43A G52U A57G, the self-cleavage was determined as 1.13.

Regarding U1C A20G A45G U49A A65U, the self-cleavage came out at 0.05.

For U1C G8C U26A U54C U78C U80C, the self-cleavage stood at 0.06.

Consider U1C A2U G16A U26A A65G, for which the self-cleavage came out at 0.09.

Take A2G A15G A35G U72C: the self-cleavage was determined as 1.05.

Turning to U1C U41C U80C, the self-cleavage was 1.01.

Regarding U1C U41C U80A, the self-cleavage was found to be 1.08.

Consider A2C U41C U69C, for which the self-cleavage was determined as 0.42.

U1C C34A U48G U80C: the self-cleavage was found to be 0.23.

U1C A20G U26G U31C C32U: the self-cleavage came out at 0.06.

For A2G A5C A13C, the self-cleavage came to 0.9.

As for U1C A5G U26C A65G U67C G70A, the self-cleavage worked out at 0.17.

With U1C A20G U26A A35G, the self-cleavage came to 1.23.

Turning to A2G A5G U25C U43C U51A U78C, the self-cleavage stood at 0.09.

A2G A13U U31C U51C U58G G63A: the self-cleavage came out at 0.18.

For the variant A2C A5C G8A G52A A56G U72C, the self-cleavage was found to be 0.08.

In the case of U1C A28G A65C, the self-cleavage turned out to be 0.06.

For the variant A2C U31A C62G U72C U76G, the self-cleavage is 0.16.

With A2G A5U G9U A35U C38U, the self-cleavage came out at 0.07.

With U1C A18U U25A U49C U60A, the self-cleavage was found to be 0.

For U1C A35G U49A U76A, the self-cleavage was determined as 1.25.

Take A2C A15G U48C: the self-cleavage was 0.38.

For the variant U1C A64U A65G U69C, the self-cleavage came out at 0.18.

Turning to U1C U41C U48C A56G A75G, the self-cleavage was determined as 0.49.

As for U1C C11G U31G U48A U49A U72G U80A, the self-cleavage is 0.05.

Turning to U1C A18C U26C A35G U67C, the self-cleavage came to 0.12.

Consider U1C U26A U31C C39U A45U A57G A64G, for which the self-cleavage amounted to 0.05.

On to U1C A5U A18G A35G A56U, for which the self-cleavage amounted to 0.45.

With U1C A64G U67C U74A, the self-cleavage is 0.2.

A2G A15G A21G C23U U41G U69A: the self-cleavage came out at 0.11.

On to U1C A21G C59A U60A, for which the self-cleavage is 0.22.

As to U1C A21G C32U G33A A45G G52U U60C, the self-cleavage amounted to 0.05.
